# Assay results taken from PubChem BioAssay (NCATS).
# The shares of active, inactive and inconclusive entries below differ from those in the screen. Potencies of inconclusive entries are left out as doubtful fits. Activity calls are given as the source filed them. Calls come from the whole dose curve; as a rule, active = well fitted inhibition curve with a large enough effect; inconclusive = small, poorly fitted or top-dose-only effect; inactive = no such curve, though single readings can be large or run the other way.
# Assay: P-glycoprotein substrates identified in KB-3-1 adenocarcinoma cell line, qHTS therapeutic library screen (AID 1346986); note: nearly all actives have a fitted effect of over 60% in size;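 note: potency is for cytotoxicity meaning loss of cell viability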
# Conditions: KB-3-1 parental cells viability, CellTiter-Glo, 72 h; series mostly up to 44.5 µM
# Description: The ATP-binding cassette transporters P-glycoprotein (P-gp) is known to limit brain penetration of many chemotherapy drugs. […] We used the CellTiter-Glo viability assay to test library compounds against the parental KB-3-1 human cervical adenocarcinoma cell line and the colchicine-selected sub-line KB-8-5-11 that over-expresses P-gp. KB-8-5-11 cells were also tested in the presence of a P-gp inhibitor (tariquidar) to assess reversability of transporter-mediated resistance. Of the tested compounds, a total of 90 P-gp substrates were identified including 55 newly identified P-gp substrates. Substrates were confirmed using an orthogonal killing assay against HEK-293 cells transfected with P-gp. As exemplars, we confirmed that AT7159 (cyclin-dependent kinase inhibitor); AT9283, (Janus kinase 2/3 inhibitor); ispinesib (kinesin spindle protein inhibitor); gedatolisib (PKI-587, phosphoinositide 3-kinase/mammalian target of rampamycin inhibitor); GSK-690693 (AKT inhibitor); and KW-2478 (heat shock protein 90 inhibitor) were substrates , and direct ATPase stimulation was assessed. ABCG2 was also found to confer high levels of resistance to AT9283, GSK-690693 and gedatolisib, while ispinesib, AT7519 and KW-2478 were weaker substrates.
# The HeLa derivative cell line, KB-3-1, and its colchicine-selected, P-gp-overexpressing subline, KB-8-5-11 were maintained in DMEM with 10% FCS and Pen/Strep with glutamine at 37 degree C in 5% CO2. For KB-8-5-11 cells, colchicine was added to the medium at a concentration of 100 ng/mL. HEK-293 cells transfected with empty vector (pcDNA) or vector containing human ABCB1 (MDR-19) or ABCG2 (R-5) have been described previously (Robey, Lin, Qiu, Chan & Bates, 2011) and were maintained in EMEM supplemented with 10% FCS, Pen/Strep and glutamine with 2 mg/ml G418 to select for the expression of the transporter. Cultures were confirmed to be free of mycoplasma infection using the MycoAlert Mycoplasma Detection Kit (Lonza, Walkersville, MD). For the screen, assay medium was identical to culture medium except for KB-8-5-11 where colchicine was excluded from the medium.
# All cell lines were plated into 1536-well plates at 500 cells/well in 5 uL media. Compounds were then pinned in dose-response using a 1536-head pin tool (Kalypsis, San Diego, CA) and plates were incubated at 37 degree C in 5% CO2 for an additional 72 h. CellTiter-Glo reagent (Promega) was dispensed into the wells, incubated for 5 min and luminescence was read on a ViewLux instrument (Perkin-Elmer). Cytotoxic compounds were defined as those that yielded a curve class of -1.1, -1.2, -2.1, -2.2, -2.3, or -2.4, a maximum response of >50% and an AC50 of < 10 uM. Cherry-picked hits from screening analysis were tested with both the KB pair of cell lines, and the pcDNA (empty vector control) and MDR-19 (P-gp overexpressing) pair were tested, in the absence and presence of tariquidar.
# Potency is the fitted concentration of half-maximal effect; tags give direction and shape of the fitted curve.
SMILES,Potency,outcome
CC(C)N(CCC(=O)c1ccc2ccccc2c1)Cc1ccccc1,"inconclusive [inhibitor, single point]",–
C=C1[C@@H]2CC[C@@H]3[C@@](CCC4C(C(=O)O)(C(=O)O)C[C@@H](O[C@@H]5O[C@H](CO)[C@@H](O)[C@H](O)[C@H]5OC(=O)CC(C)C)C[C@]43C)(C2)[C@H]1O (stereo not given in full),–,inactive [at 17.4 µM]
COc1cc(C(=O)OC(COCCC(C)C)CN2CCOCC2)cc(OC)c1OC (stereo not given),–,inactive
C=CCc1ccc(O[C@@H]2O[C@H](CO)[C@@H](O)[C@H](O)[C@H]2O)c(O[C@@H]2O[C@H](CO)[C@@H](O)[C@H](O)[C@H]2O)c1,–,inactive [at 17.4 µM]
CCC(O)C(C)C1CCC(C(C)C(=O)O)O1 (stereo not given),–,inactive
Cc1cc(-c2cnc(N)c3c(-c4ccc5scnc5c4)csc23)n(C)n1,"inconclusive [inhibitor, partial curve]",–
CO/N=C(/C(=O)N[C@@H]1C(=O)N2C(C(=O)O)=C(Cn3nnc(C)n3)CS[C@H]12)c1csc(N)n1,–,inactive
O=C(c1c2ccccc2cc2ccccc12)N1CCC(N2CCC[C@@H](C(=O)N3CCOCC3)C2)CC1,–,inactive
Cc1nc([C@](C)(O)CO)sc1-c1cnc(N)c(O[C@H](C)c2cc(F)ccc2-n2nccn2)c1,"inconclusive [inhibitor, full curve, poor fit]",–
Cc1ccc(C(=O)Nc2ccc(CN3CCN(C)CC3)c(C(F)(F)F)c2)cc1C#Cc1cnc2[nH]ncc2c1,"inconclusive [inhibitor, partial curve, poor fit]",–
CCOC(=O)N1CCC(=C2c3ccc(Cl)cc3CCc3cccnc32)CC1,–,inactive
CC[C@@](C)(Nc1ccnc(-c2c[nH]c3ncccc23)n1)C(=O)NCC(F)(F)F,"inconclusive [inhibitor, partial curve, poor fit]",–
CC(=O)N1CCN(C(=O)Cc2ccc(Nc3ncc(F)c(Nc4ccc(C(=O)Nc5ccccc5Cl)cc4)n3)cc2)CC1,active: 2.91 µM,–
FC(F)(F)c1ccc(CNc2ccc(Cc3c[nH]c4ncc(Cl)cc34)cn2)cn1,"inconclusive [inhibitor, single point]",–
C[C@@H]1CC[C@]2(C(=O)O)CC[C@]3(C(=O)O)C(=CCC4[C@@]5(C)CC[C@H](O[C@@H]6O[C@@H](C)[C@H](O[C@@H]7O[C@H](CO)[C@@H](O)[C@H](O)[C@H]7O)[C@@H](O)[C@H]6O)C(C)(C)C5CC[C@]43C)C2[C@H]1C (stereo not given in full),–,inactive [at 17.4 µM]
O=C(Nc1ccc(-c2ccnc(Nc3ccc(N4CCOCC4)cc3)n2)cc1)C1CCCN1 (stereo not given),"inconclusive [inhibitor, partial curve]",–
O=c1[nH]ccc2nc(-c3ccc(CN4CCC(c5nc(-c6ccccn6)n[nH]5)CC4)cc3)c(-c3ccccc3)cc12,"inconclusive [inhibitor, single point]",–
CC1OC(OC2C(C)OC(OC3C(OC(=O)C45CCC(C)(C)CC4C4=CCC6C7(C)CCC(OC8OC(C(=O)O)C(O)C(O)C8OC8OC(CO)C(O)C(OC9OC(C)C(O)C(O)C9O)C8O)C(C)(CO)C7CCC6(C)C4(C)CC5)OC(CO)C(O)C3O)C(O)C2O)C(O)C(O)C1O (stereo not given),–,inactive [at 9.29 µM]
Cc1cc2c(F)c(Oc3ncnn4cc(OCC(C)O)c(C)c34)ccc2[nH]1 (stereo not given),"inconclusive [inhibitor, full curve]",–
C/C(=N\N=C(N)N)c1cc(NC(=O)CCCCCCCCC(=O)Nc2cc(/C(C)=N/N=C(N)N)cc(/C(C)=N/N=C(N)N)c2)cc(/C(C)=N/N=C(N)N)c1,active: 14.6 µM,–

SMILES,Potency,outcome
COC(=O)N[C@@H](C)CNc1nccc(-c2cn(C(C)C)nc2-c2cc(Cl)cc(NS(C)(=O)=O)c2F)n1,"inconclusive [inhibitor, partial curve, poor fit]",–
CC1(C)CC[C@]2(C(=O)O)CC[C@]3(C)C(=CCC4[C@@]5(C)C[C@@H](O)[C@H](O)[C@@](C)(CO)C5[C@H](O)C[C@]43C)[C@@H]2C1 (stereo not given in full),–,inactive [at 17.4 µM]
N#Cc1cnc2cnc(NCc3cccnc3)cc2c1Nc1ccc(F)c(Cl)c1,"inconclusive [inhibitor, partial curve]",–
CC(=O)O[C@@H]1[C@H](O[C@@H]2O[C@H](CO)[C@@H](O)[C@H](O)[C@H]2O)[C@@H](O[C@@H]2O[C@@H](C)[C@H](O)[C@@H](O[C@@H]3O[C@H](CO)[C@@H](O)[C@H](O)[C@H]3O)[C@H]2O)[C@H](OC(=O)[C@]23CCC(C)(C)C[C@H]2C2=CCC4[C@@]5(C)C[C@H](O)[C@H](O[C@@H]6O[C@H](C(=O)O)[C@@H](O)[C@H](O)[C@H]6O)[C@@](C)(C(=O)O)C5CC[C@@]4(C)[C@]2(C)CC3)O[C@@H]1C (stereo not given in full),–,inactive [at 9.29 µM]
C1=C/COCc2cc(ccc2OCCN2CCCC2)Nc2nccc(n2)-c2cccc(c2)COC/1,active: 4.61 µM,–
Nc1ccc(/C=C/C(=O)NCc2cc3cc(-c4ccc(C(=O)N5CCC(F)(F)CC5)cc4)cc(-c4ccc(F)cc4)c3o2)cn1,active: 0.517 µM,–
CC(=O)c1ccc2c(c1)C(O)C(C(C)(C)O)O2 (stereo not given),–,inactive
CN1CCN(CCCN2c3ccccc3Sc3ccc(C(F)(F)F)cc32)CC1,"inconclusive [inhibitor, single point] and inactive",–
CCS(=O)(=O)N1CCN(c2ccc(Nc3ncc(C(N)=O)c(NC4CC4)n3)cc2)CC1,active: 4.61 µM,–
CCNc1nc2c(ncn2[C@H]2C[C@H](O)[C@@H](CO)O2)c(=O)[nH]1,–,inactive
CC/C=C/C(O)C(O)C1=C(C)C(=O)C2(O1)C(=O)NC(OC)(C(=O)c1ccccc1)C2O (stereo not given),–,inactive [at 17.4 µM]
NC1(Cc2ccc(Cl)cc2)CCN(c2ncnc3[nH]ccc23)CC1,"inconclusive [inhibitor, single point]",–
CN(CC1(C)CCCO1)S(=O)(=O)c1ccc(Cl)c(S(N)(=O)=O)c1 (stereo not given),–,inactive
CCc1ccc(C(=O)Nc2cc(CN3CCN(C)CC3)cc(C(F)(F)F)c2)cc1C#Cc1cnc2ccnn2c1,active: 4.11 µM,–
C=CC(=O)N1CCC(Oc2cc3c(Nc4ccc(Cl)c(Cl)c4F)ncnc3cc2OC)CC1,active: 13 µM,–
COc1cc(N2CCOCC2)ccc1Nc1ncc(Cl)c(Nc2ccccc2NS(C)(=O)=O)n1,active: 2.06 µM,–
CS(=O)(=O)N1CCc2c(-c3cnc(N)nc3)nc(N3CCOCC3)nc21,active: 0.82 µM,–
CC1=C2CC3OC3(C)CCC3OC3(C)CC2OC1=O (stereo not given),–,inactive
N#Cc1ccc2ncnc(NCCc3ccccc3)c2c1,active: 16.4 µM,–
C[C@H](CN(C)C)Oc1nc(Nc2cc3cccc(Cl)c3cn2)cnc1C#N,"inconclusive [inhibitor, full curve, poor fit]",–
